From the supplement of paper PMC4604168 (melanoma cell lines) come the findings set out here.

The list shows a part of the results. Most values come without repeats; read them as rough.
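Further: cells treated in 1,536-well plates, then fixed and DAPI-stained, with nuclei counted from automated high-throughput microscope images.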

The first experiment concerns A101D. The experiment is described as follows: cell count relative to DMSO control; melanoma cells; higher = more viable cells. As to conditions: library dose: standard library concentration; 72 h.
As to `C=CCn1c(=O)c2cnc(Nc3ccc(N4CCN(C)CC4)cc3)nc2n1-c1cccc(C(C)(C)O)n1` + Cc1cc([N+](=O)[O-])ccc1NS(=O)(=O)c1cc(Cl)ccc1Cl [FH535] (first compound 0.1 µM, partner dose 5 µM), the cell count was 71.7%.
With `OCCn1cc(-c2cnc3nnn(Cc4ccc5ncccc5c4)c3n2)cn1` + O=C(Nc1cccc(Cl)c1)Nc1ncc(CCNc2ncnc3ccsc23)s1 [SNS314] (first compound 5 µM, partner dose 0.004 µM), the cell count was 75.8%.
The same measure, in the same setting: the figure for `Cc1nc(Nc2ncc(C(=O)Nc3c(C)cccc3Cl)s2)cc(N2CCN(CCO)CC2)n1` [dasatanib] + C[C@@H]1CCN(C(=O)CC#N)C[C@@H]1N(C)c1ncnc2[nH]ccc12 [CP690550] (first compound 0.02 µM, partner dose 5 µM) is 69.8%; for `NCC(=O)Nc1ccc(-n2nc(C(F)(F)F)cc2-c2ccc3c(ccc4ccccc43)c2)cc1` + CN(NC(=O)CC(=O)NN(C)C(=S)c1ccccc1)C(=S)c1ccccc1 [STA4783] (first compound 5 µM, partner dose 0.03 µM) it is 29.6%.
The compound `Cc1nc(Nc2ncc(C(=O)Nc3c(C)cccc3Cl)s2)cc(N2CCN(CCO)CC2)n1` [dasatanib] + COCC[n+]1c2c(n(Cc3cnccn3)c1C)C(=O)c1ccccc1C2=O [YM155] (first compound 0.02 µM, partner dose 0.002 µM) came in with a cell count of 46.8%.
Still for that read-out and setting: the figure for `CN(C)S(=O)(=O)c1ccc2c(c1)/C(=C/c1cc3c([nH]1)CCCC3)C(=O)N2` + CC(C)CCN1c2nc(Nc3cc(F)c(O)c(F)c3)ncc2N(C)C(=O)C1C [BID1870] (first compound 2 µM, partner dose 1 µM) is 72.1%.
Still for that read-out and setting: the figure for `C=CCn1c(=O)c2cnc(Nc3ccc(N4CCN(C)CC4)cc3)nc2n1-c1cccc(C(C)(C)O)n1` + Cc1ccc(NC(=O)c2cccc(N(C)C)c2)cc1NC(=O)c1ccc(O)cc1 [ZM336372] (first compound 0.1 µM, partner dose 10 µM) is 62.8%; for `Cc1nc(Nc2ncc(C(=O)Nc3c(C)cccc3Cl)s2)cc(N2CCN(CCO)CC2)n1` [dasatanib] + O=C(Nc1cccc(Cl)c1)Nc1ncc(CCNc2ncnc3ccsc23)s1 [SNS314] (first compound 0.02 µM, partner dose 0.004 µM) it is 68.2%.

The next experiment relates to A2058. Described as above. As to conditions: library dose: standard library concentration; 72 h.
The compound `OCCn1cc(-c2cnc3nnn(Cc4ccc5ncccc5c4)c3n2)cn1` + C[C@@H]1CCN(C(=O)CC#N)C[C@@H]1N(C)c1ncnc2[nH]ccc12 [CP690550] (first compound 5 µM, partner dose 5 µM) displayed a cell count of 106%.
Still for that read-out and setting: the figure for `Cc1nc(Nc2ncc(C(=O)Nc3c(C)cccc3Cl)s2)cc(N2CCN(CCO)CC2)n1` [dasatanib] + NCC(=O)Nc1ccc(-n2nc(C(F)(F)F)cc2-c2ccc3c(ccc4ccccc43)c2)cc1 [OSU03012] (first compound 0.02 µM, partner dose 5 µM) is 75.6%; for `C[C@]1(c2nc3c(C(N)=O)cccc3[nH]2)CCCN1` [Veliparib] + CC(C)(C)c1cnc(CSc2cnc(NC(=O)C3CCNCC3)s2)o1 [SNS-032] (first compound 7 µM, partner dose 0.05 µM) it is 76.7%; for `Cc1nc(Nc2ncc(C(=O)Nc3c(C)cccc3Cl)s2)cc(N2CCN(CCO)CC2)n1` [dasatanib] + Cc1ccc(NC(=O)c2cccc(N(C)C)c2)cc1NC(=O)c1ccc(O)cc1 [ZM336372] (first compound 0.02 µM, partner dose 10 µM) it is 80.2%.
As for `C[C@]1(c2nc3c(C(N)=O)cccc3[nH]2)CCCN1` [Veliparib] + Cn1cncc1[C@@](N)(c1ccc(Cl)cc1)c1ccc2c(c1)c(-c1cccc(Cl)c1)cc(=O)n2C [tipifarnib] (first compound 7 µM, partner dose 0.05 µM), the cell count is 61.7%.
Same read-out and setting: the same measure for `OCCn1cc(-c2cnc3nnn(Cc4ccc5ncccc5c4)c3n2)cn1` + CCN(CC)CCCCNc1ncc2cc(-c3cc(OC)cc(OC)c3)c(NC(=O)NC(C)(C)C)nc2n1 [PD173074] (first compound 5 µM, partner dose 0.5 µM): 85.4%; for `Cc1nc(Nc2ncc(C(=O)Nc3c(C)cccc3Cl)s2)cc(N2CCN(CCO)CC2)n1` [dasatanib] + COc1cc2c(Oc3ccc4[nH]c(C)cc4c3F)ncnc2cc1OCCCN1CCCC1 [cediranib] (first compound 0.02 µM, partner dose 2 µM): 55.5%; for `C[C@]1(c2nc3c(C(N)=O)cccc3[nH]2)CCCN1` [Veliparib] + CC1(C)NC(=O)N(c2ccc([N+](=O)[O-])c(C(F)(F)F)c2)C1=O [nilutamide] (first compound 7 µM, partner dose 5 µM): 61.6%.
Same read-out and setting: the figure for `OCCn1cc(-c2cnc3nnn(Cc4ccc5ncccc5c4)c3n2)cn1` + COc1cc2c(Oc3ccc4[nH]c(C)cc4c3F)ncnc2cc1OCCCN1CCCC1 [cediranib] (first compound 5 µM, partner dose 2 µM) is 89.3%; for `Cc1nc(Nc2ncc(C(=O)Nc3c(C)cccc3Cl)s2)cc(N2CCN(CCO)CC2)n1` [dasatanib] + Cc1cc(N2CCOCC2)cc2[nH]c(-c3c(NC[C@@H](O)c4cccc(Cl)c4)cc[nH]c3=O)nc12 [BMS536924] (first compound 0.02 µM, partner dose 1 µM) it is 47.3%; for `C[C@]1(c2nc3c(C(N)=O)cccc3[nH]2)CCCN1` [Veliparib] + C=CCn1c(=O)c2cnc(Nc3ccc(N4CCN(C)CC4)cc3)nc2n1-c1cccc(C(C)(C)O)n1 [MK1775] (first compound 7 µM, partner dose 0.1 µM) it is 73.5%.
On the same count and under the same terms, the figure for `NC(=O)Nc1cc(-c2cccc(F)c2)sc1C(=O)N[C@H]1CCCNC1` + N#Cc1c(O)c2c(-c3ccc(-c4ccccc4O)cc3)csc2[nH]c1=O [A769662] (first compound 0.1 µM, partner dose 10 µM) is 81.2%.
The compound `Cc1nc(Nc2ncc(C(=O)Nc3c(C)cccc3Cl)s2)cc(N2CCN(CCO)CC2)n1` [dasatanib] + Cn1cc(/C=C2\C(=O)Nc3cccnc32)c2ccccc21 [GW441756] (first compound 0.02 µM, partner dose 2 µM) yielded a cell count of 84.4%.
Compound `C[C@]1(c2nc3c(C(N)=O)cccc3[nH]2)CCCN1` [Veliparib] + O=C(Nc1cccc(Cl)c1)Nc1ncc(CCNc2ncnc3ccsc23)s1 [SNS314] (first compound 7 µM, partner dose 0.004 µM) gave a cell count of 71.6%.
On the same count and under the same terms, the figure for `Cc1nc(Nc2ncc(C(=O)Nc3c(C)cccc3Cl)s2)cc(N2CCN(CCO)CC2)n1` [dasatanib] + Cn1c(Nc2ccc(C(F)(F)F)cc2)nc2cc(Oc3ccnc(-c4ncc(C(F)(F)F)[nH]4)c3)ccc21 [CHIR265] (first compound 0.02 µM, partner dose 0.4 µM) is 42.2%; for `CN(C)S(=O)(=O)c1ccc2c(c1)/C(=C/c1cc3c([nH]1)CCCC3)C(=O)N2` + NCC(=O)Nc1ccc(-n2nc(C(F)(F)F)cc2-c2ccc3c(ccc4ccccc43)c2)cc1 [OSU03012] (first compound 2 µM, partner dose 5 µM) it is 76%.
For `C[C@]1(c2nc3c(C(N)=O)cccc3[nH]2)CCCN1` [Veliparib] + O=C(CCCCCCC(=O)Nc1ccccc1)NO [vorinostat] (first compound 7 µM, partner dose 0.4 µM), the cell count turned out to be 86.4%.
The compound `CO[C@@H]1[C@H](N(C)C(=O)c2ccccc2)C[C@H]2O[C@]1(C)n1c3ccccc3c3c4c(c5c6ccccc6n2c5c31)C(=O)NC4` [Midostaurin] + CC(C)(C)c1cnc(CSc2cnc(NC(=O)C3CCNCC3)s2)o1 [SNS-032] (first compound 0.4 µM, partner dose 0.05 µM) gave a cell count of 39.6%.
Same read-out and setting: the figure for `C=CCn1c(=O)c2cnc(Nc3ccc(N4CCN(C)CC4)cc3)nc2n1-c1cccc(C(C)(C)O)n1` + CN(NC(=O)CC(=O)NN(C)C(=S)c1ccccc1)C(=S)c1ccccc1 [STA4783] (first compound 0.1 µM, partner dose 0.03 µM) is 17.3%; for `C[C@]1(c2nc3c(C(N)=O)cccc3[nH]2)CCCN1` [Veliparib] + OCCn1cc(-c2cnc3nnn(Cc4ccc5ncccc5c4)c3n2)cn1 [PF04217903] (first compound 7 µM, partner dose 5 µM) it is 89.7%; for `C=CCn1c(=O)c2cnc(Nc3ccc(N4CCN(C)CC4)cc3)nc2n1-c1cccc(C(C)(C)O)n1` + C[C@@H]1CCN(C(=O)CC#N)C[C@@H]1N(C)c1ncnc2[nH]ccc12 [CP690550] (first compound 0.1 µM, partner dose 5 µM) it is 74%.
Still for that read-out and setting: the figure for `CO[C@@H]1[C@H](N(C)C(=O)c2ccccc2)C[C@H]2O[C@]1(C)n1c3ccccc3c3c4c(c5c6ccccc6n2c5c31)C(=O)NC4` [Midostaurin] + Cc1cc(N2CCOCC2)cc2[nH]c(-c3c(NC[C@@H](O)c4cccc(Cl)c4)cc[nH]c3=O)nc12 [BMS536924] (first compound 0.4 µM, partner dose 1 µM) is 60.8%; for `C=CCn1c(=O)c2cnc(Nc3ccc(N4CCN(C)CC4)cc3)nc2n1-c1cccc(C(C)(C)O)n1` + NCC(=O)Nc1ccc(-n2nc(C(F)(F)F)cc2-c2ccc3c(ccc4ccccc43)c2)cc1 [OSU03012] (first compound 0.1 µM, partner dose 5 µM) it is 58.6%.
As for `NCC(=O)Nc1ccc(-n2nc(C(F)(F)F)cc2-c2ccc3c(ccc4ccccc43)c2)cc1` + COc1cc(N2CCC(N3CCN(C)CC3)CC2)ccc1Nc1ncc(Cl)c(Nc2ccccc2S(=O)(=O)C(C)C)n1 [NVP-TAE684] (first compound 5 µM, partner dose 0.4 µM), the cell count came out at 58.5%.
